Assay results published in publication PMC6212790.
This is one part of the list. At the low end of the ranking the order means little.

Molecular target: T1, GST-Rok-C97-191 (UniProt O34857)
T1 sequence: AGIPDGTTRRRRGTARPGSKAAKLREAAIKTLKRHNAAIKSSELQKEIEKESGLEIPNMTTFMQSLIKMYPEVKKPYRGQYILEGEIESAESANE
Assay: protein binding microarray;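 also: rank score from −0.5 (least bound) to 0.5 (best bound)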
Settings: Rok is a gene silencer of Bacillus subtilis; high values mean tight binding; most listed sequences are background and not binding sites; double strand, one strand shown

Q: For CTGTCGTC, which binding signal is on record?
A: -0.189 E-score

Q: AACCTGGA was tested. Which binding signal did it give?
A: -0.238 E-score

Q: With ACTATAAA as the sequence, how does the binding signal read?
A: 0.322 E-score

Q: Which binding signal does the source give for ACGGACAC here?
A: -0.0606 E-score

Q: How did the binding signal turn out when ATTTTATC was run?
A: 0.328 E-score

Q: CACGCAAA was tested. Which binding signal did it give?
A: -0.0897 E-score

Q: For CGAGCAGC, which binding signal is on record?
A: -0.0166 E-score

Q: How did the binding signal turn out when CATTGACC was run?
A: -0.115 E-score

Q: For ATTAGTGA, which binding signal is on record?
A: 0.126 E-score

Q: Which binding signal does the source give for ATTCTAAC here?
A: 0.216 E-score

Q: How did the binding signal turn out when GCACAGGC was run?
A: -0.199 E-score

Q: How did the binding signal turn out when ATACGTAC was run?
A: 0.304 E-score

Q: How did the binding signal turn out when ACGTTAAT was run?
A: 0.172 E-score

Q: ATTACTAG was tested. Which binding signal did it give?
A: 0.392 E-score

Q: ATCTGGGC was tested. Which binding signal did it give?
A: -0.117 E-score

Q: AGGGGGCG was tested. Which binding signal did it give?
A: -0.328 E-score

Q: Which binding signal does the source give for AAGCTCAT here?
A: 0.0848 E-score

Q: CGAAAATA was tested. Which binding signal did it give?
A: 0.204 E-score

Q: How did the binding signal turn out when ATGACTTG was run?
A: -0.13 E-score

Q: ATGCCTTA was tested. Which binding signal did it give?
A: 0.0962 E-score

Q: TAGGGAAA was tested. Which binding signal did it give?
A: 0.102 E-score

Q: How did the binding signal turn out when GAGACATC was run?
A: -0.0542 E-score

Q: With GTACGCGA as the sequence, how does the binding signal read?
A: 0.125 E-score

Q: With AGTAATCG as the sequence, how does the binding signal read?
A: 0.0918 E-score

Q: How did the binding signal turn out when CAACAACA was run?
A: 0.152 E-score

Q: With CGTCTCTC as the sequence, how does the binding signal read?
A: -0.178 E-score

Q: For ACTTGGGA, which binding signal is on record?
A: -0.0569 E-score

Q: GATAAAAC was tested. Which binding signal did it give?
A: 0.211 E-score

Q: For AGGTTACC, which binding signal is on record?
A: -0.0423 E-score

Q: AGGGACCA was tested. Which binding signal did it give?
A: -0.0833 E-score

Q: Which binding signal does the source give for ATTCTTAG here?
A: 0.0803 E-score

Q: How did the binding signal turn out when CGGTGCGC was run?
A: -0.271 E-score

Q: For ATAAGATA, which binding signal is on record?
A: 0.372 E-score

Q: ACTTCGAC was tested. Which binding signal did it give?
A: 0.00083 E-score

Q: With GAAACTTC as the sequence, how does the binding signal read?
A: 0.204 E-score

Q: With AACCCGCA as the sequence, how does the binding signal read?
A: -0.235 E-score

Q: Which binding signal does the source give for ATCACTAG here?
A: 0.212 E-score

Q: CAATGTTA was tested. Which binding signal did it give?
A: 0.195 E-score

Q: For CTATAGCA, which binding signal is on record?
A: 0.132 E-score

Q: With GCTTGGTA as the sequence, how does the binding signal read?
A: -0.0211 E-score

Q: With ACAACACG as the sequence, how does the binding signal read?
A: 0.0409 E-score

Q: How did the binding signal turn out when GGCAGACA was run?
A: 0.0591 E-score

Q: AACGACTA was tested. Which binding signal did it give?
A: -0.0698 E-score

Q: With AACAAGAG as the sequence, how does the binding signal read?
A: -0.0722 E-score

Q: With CTTAACGC as the sequence, how does the binding signal read?
A: -0.207 E-score

Q: Which binding signal does the source give for AGCGAGAT here?
A: -0.133 E-score

Q: For GCAGACTA, which binding signal is on record?
A: 0.0523 E-score

Q: Which binding signal does the source give for CTCACTAC here?
A: -0.0136 E-score

Q: AACGTAGA was tested. Which binding signal did it give?
A: 0.132 E-score

Q: Which binding signal does the source give for GCGATAGA here?
A: 0.19 E-score

Q: How did the binding signal turn out when AAAAAGGA was run?
A: 0.00634 E-score

Q: With CGAGCTAG as the sequence, how does the binding signal read?
A: 0.00213 E-score

Q: Which binding signal does the source give for GGCCGTGA here?
A: -0.25 E-score

Q: GGACGTAC was tested. Which binding signal did it give?
A: 0.00495 E-score

Q: How did the binding signal turn out when CGCAGACA was run?
A: -0.113 E-score

Q: Which binding signal does the source give for CAATATCA here?
A: 0.152 E-score

Q: With GTTCTGGA as the sequence, how does the binding signal read?
A: 0.0518 E-score

Q: With GGCAATCA as the sequence, how does the binding signal read?
A: -0.0587 E-score

Q: How did the binding signal turn out when CGAATGTA was run?
A: 0.201 E-score

Q: For TGGGAGAA, which binding signal is on record?
A: 0.102 E-score

Q: With CGGCGGAG as the sequence, how does the binding signal read?
A: -0.206 E-score

Q: AGGACAAA was tested. Which binding signal did it give?
A: -0.0842 E-score

Q: How did the binding signal turn out when GTGAGCCA was run?
A: -0.215 E-score

Q: With ACGAGTAA as the sequence, how does the binding signal read?
A: 0.12 E-score

Q: For CTAAAGTC, which binding signal is on record?
A: 0.0658 E-score

Q: For CACCCGGA, which binding signal is on record?
A: -0.242 E-score

Q: For CGAAGTCG, which binding signal is on record?
A: -0.164 E-score

Q: For ATCGGTAG, which binding signal is on record?
A: 0.108 E-score

Q: For GAAGAGCA, which binding signal is on record?
A: -0.0308 E-score

Q: ATCAGGCG was tested. Which binding signal did it give?
A: 0.0336 E-score

Q: CGTGGCTA was tested. Which binding signal did it give?
A: -0.0449 E-score

Q: Which binding signal does the source give for TACTGATA here?
A: 0.21 E-score

Q: Which binding signal does the source give for GATCGGTA here?
A: 0.153 E-score

Q: For TAATAAGA, which binding signal is on record?
A: 0.319 E-score

Q: For CGCCCCGC, which binding signal is on record?
A: -0.287 E-score

Q: Which binding signal does the source give for TACCAATA here?
A: 0.295 E-score

Q: For ATGTGCGC, which binding signal is on record?
A: -0.0507 E-score

Q: TATCCGAA was tested. Which binding signal did it give?
A: 0.154 E-score

Q: How did the binding signal turn out when CACAGACA was run?
A: -0.323 E-score

Q: Which binding signal does the source give for CCTGGCGA here?
A: -0.142 E-score

Q: Which binding signal does the source give for ACTACATC here?
A: 0.334 E-score

Q: How did the binding signal turn out when AATAACGT was run?
A: 0.198 E-score

Q: With GAGTAGCC as the sequence, how does the binding signal read?
A: -0.273 E-score

Q: How did the binding signal turn out when CCCAGCGC was run?
A: -0.242 E-score

Q: How did the binding signal turn out when AACTCCGT was run?
A: -0.062 E-score

Q: AACGAAAA was tested. Which binding signal did it give?
A: -0.055 E-score
